Source: PubChem BioAssay AID904 (National Center for Advancing Translational Sciences (NCATS), 2007)
Screen size: about 55,000 compounds; about 530 (0.96%) were called active. Inconclusive results, whose numbers are uncertain, are shown with a selection of clear calls. The call rests on the fitted dose curve; in most records, active means well fitted cell-killing curve with a large enough effect; inconclusive means small, poorly fitted or top-dose-only effect; inactive means no such curve, though single readings can be large or run the other way. A potency beside an inconclusive call is a rough fit, not a confirmed value.

Assay: qHTS Screen for Compounds that Selectively Target Cancer Cells with p53 Mutations: Cytotoxicity of p53 Null Cells at the Nonpermissive Temperature; further: nearly all actives have a fitted effect of over 50% in size;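 on activity, negative = cell killing: 0% = DMSO only and -100% = full killing by 100 µM tamoxifen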
Conditions: H1299 p53-null (neo) cells, 39C, ATPlite viability, 24 h; activity, negative = cell killing: at 46.1 µM (top of the series)
Procedure, shortened: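 Temperature-shift cytotoxicity format: compound titrations on p53-null or A138V-expressing H1299 cells held 24 hr at 39C, cell ATP then measured, AC50 from Hill model.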
Potency means the concentration at half of the fitted maximal effect; tags describe the fitted curve by direction and shape.

SMILES	Potency	activity, negative = cell killing
Cc1cccc(Cn2cc(C(=O)Nc3ccc(F)c(C(F)(F)F)c3)ccc2=O)c1	inconclusive: 22.4 µM [cytotoxic, single point]	
CCOC(=O)c1cnc(NCc2ccccc2OC)c2ccccc12	inconclusive: 35.5 µM [cytotoxic, partial curve, poor fit]	
COc1ccccc1CN1COc2ccc3c(oc(=O)c4ccccc43)c2C1		inactive: 13.4%
C#CCOc1ccc(-c2nnc(Nc3cccc(C)c3)c3ccccc23)cc1	inconclusive: 31.6 µM [cytotoxic, partial curve]	
CCOC(=O)c1cccc(NC(=O)Cn2ncc3c4ccccc4n(Cc4ccccc4)c3c2=O)c1	inconclusive: 12.6 µM [cytotoxic, single point]	
CCCCOc1ccc(C(=O)N2CCN(CCc3ccccn3)CC2)cc1		inactive: 16.9%
CSc1ccc(-c2nc3ccc(C)cn3c2Nc2ccccc2C)cc1	inconclusive: 31.6 µM [cytotoxic, single point]	
Cc1ccccc1CCNC(=O)c1ccc2c(c1)c(C)c(C)n2Cc1ccccc1		inactive: 9.33%
CC1=C(C)/C(=N/OC(=O)c2cccc([N+](=O)[O-])c2)C=CC1=O	inconclusive: 12.6 µM [cytotoxic, single point]	
CCN(c1ccccc1)c1ncnc2c1cnn2-c1ccc(C)cc1C	inconclusive: 25.1 µM [cytotoxic, single point]	
COC(=O)c1c(NC(=O)CN2CCN(S(=O)(=O)c3ccccc3)CC2)sc2c1CCC(C)C2 (stereo unspecified)		inactive: 21%
CC(C)(C)C(=O)NCCc1nc2ccccc2n1CCCCOc1ccc(Cl)cc1	inconclusive: 35.5 µM [cytotoxic, single point]	
Nc1ccc2oc(-c3ccccn3)nc2c1		inactive: -20.7%
CCOC(=O)Cn1c(=O)c2c(nc3n2CCN3c2ccc(CC)cc2)n(C)c1=O	inconclusive: 14.1 µM [cytotoxic, single point]	
CCc1cccc(CC)c1NC(=O)CN1C(=O)C(=O)c2ccccc21	inconclusive: 22.4 µM [cytotoxic, single point]	
Cc1cncn1CCc1nc2c3ccccc3nc(SCC(=O)Nc3cccc(Cl)c3)n2n1	inconclusive: 15.8 µM [cytotoxic, single point]	
O=C(Cc1ccccc1)Nc1cccc(-c2cn3cccnc3n2)c1	inconclusive: 15.8 µM [cytotoxic, partial curve]	
Cc1ccc(-c2noc(CSc3nnc(Cc4ccccc4)n3-c3cccc(C)c3)n2)cc1	inconclusive: 22.4 µM [cytotoxic, single point]	
O=C(NCC(c1cccnc1)N1CCc2ccccc2C1)C(=O)Nc1ccc(Cl)cc1 (stereo unspecified)	inconclusive: 0.199 µM [cytotoxic, full curve, poor fit]	
CC(Oc1ccc(F)cc1)C(=O)Nc1nc(-c2ccc(F)cc2)ns1 (stereo unspecified)	inconclusive: 14.1 µM [cytotoxic, partial curve]	
COc1ccc(C)cc1S(=O)(=O)NCC(c1cccs1)S(=O)(=O)c1ccc(C)cc1 (stereo unspecified)		inactive: 10.1%
CCOC(=O)Cc1ccc(NC(=O)Nc2ccccc2OCc2cc(=O)n3ccccc3n2)cc1	inconclusive: 1 µM [cytotoxic, partial curve]	

SMILES	Potency	activity, negative = cell killing
CCOC(=O)Cn1c(=O)n(CC2CCCO2)c2nc(-c3ccccc3F)nc(C(N)=O)c21 (stereo unspecified)	inconclusive: 0.02 µM [cytotoxic, full curve, poor fit]	
COc1ccc(Cn2c(=O)n(-c3ccccc3C)c(=O)c3c4c(sc32)CN(C(C)=O)CC4)cc1	inconclusive: 22.4 µM [cytotoxic, single point]	
C=CCSc1nc2ccccc2n1S(=O)(=O)c1ccc(C)cc1		inactive: 2.99%
COc1ccc2nc(NC(=O)c3nc(S(=O)(=O)Cc4ccccc4)ncc3Cl)sc2c1	inconclusive: 1.58 µM [cytotoxic, partial curve]	
CCN(CC)CCNC(=O)c1cc(-c2ccc(Br)s2)nc2ccccc12	active: 25.1 µM	
Cc1ccn2c(Nc3ccc(F)cc3)c(-c3ccccn3)nc2c1	inconclusive: 5.01 µM [cytotoxic, single point]	
COc1ccc(NC(=O)C2CCCN(S(=O)(=O)c3ccc4c(c3)CCCC(=O)N4)C2)cc1OC (stereo unspecified)		inactive: 3.54%
Cc1ccc(-n2ncc(C(=O)N3CCCCC3)c2C2CCN(C(=O)OC(C)(C)C)CC2)cc1C	inconclusive: 0.0316 µM [cytotoxic, full curve]	
Cc1ccc(NC(=O)c2ccc3snnc3c2)cc1Cl	inconclusive: 0.0112 µM [cytotoxic, full curve, poor fit]	
COc1ccc(-c2nc(Cn3c(SCc4cccc(Cl)c4)nc4ccncc43)c(C)o2)cc1	inconclusive: 20 µM [cytotoxic, partial curve, poor fit]	
Cc1ccc(C(=O)Nc2ccc(F)cc2)cc1S(=O)(=O)N1CCCCCC1	inconclusive: 17.8 µM [cytotoxic, single point]	
Cn1nc(-c2ccc(OCC(=O)Nc3cccc(C(F)(F)F)c3)cc2)c2ccccc2c1=O	inconclusive: 1.58 µM [cytotoxic, partial curve, poor fit]	
O=C(CN1CCCc2ccccc21)N/N=C/c1ccc(O)cc1O	inconclusive: 3.16 µM [cytotoxic, single point]	
CCOc1cccc(NC(=O)C2CC(=O)N(C)C(=Nc3cccc(OC)c3)S2)c1 (stereo unspecified)	inconclusive: 22.4 µM [cytotoxic, single point]	
CCC(Sc1ccc2nnc(CCNS(=O)(=O)c3ccc(OC)cc3)n2n1)C(=O)OC (stereo unspecified)	inconclusive: 7.94 µM [cytotoxic, partial curve, poor fit]	
COc1cc(NC(=O)NCCn2nnc3cc(S(=O)(=O)N(C)C)ccc32)cc(OC)c1OC		inactive: -0.0263%
Cc1nc2c(C(=O)NCCc3ccccc3)c[nH]n2c(=O)c1Cc1ccccc1F	inconclusive: 31.6 µM [cytotoxic, single point]	
CCOc1ccc(NC(=O)c2ncn(-c3ccccc3)n2)cc1		inactive: -18.8%
O=C(Nc1ccc(OC(F)(F)F)cc1)C(NS(=O)(=O)c1cccc2nsnc12)c1ccccc1 (stereo unspecified)	inconclusive: 12.6 µM [cytotoxic, single point]	
Cc1cc(SCC(=O)Nc2ccc(C(F)(F)F)cc2)nc(=O)[nH]1	inconclusive: 22.4 µM [cytotoxic, partial curve]	
CCc1ccc2c(c1)c(=O)c(C(=O)c1ccccc1)cn2CC(=O)Nc1ccc(C)c(Cl)c1	inconclusive: 20 µM [cytotoxic, single point]	
Cc1cc(C)c2c(n1)SCC(=O)N2CC(=O)Nc1cccc(C)c1C	inconclusive: 5.01 µM [cytotoxic, full curve, poor fit]	

SMILES	Potency	activity, negative = cell killing
CCCCC(=O)N1CCN(c2nc3c(C)c(C)ccc3s2)CC1		inactive: 3.73%
Cc1cc(C)c(NC(=O)CN2C(=O)CCn3nc(-c4cccn4C)cc32)c(C)c1	inconclusive: 0.01 µM [cytotoxic, full curve, poor fit]	
Cc1cccc(NC(=O)CN(C)S(=O)(=O)c2cnc[nH]2)c1C	inconclusive: 7.94 µM [cytotoxic, partial curve]	
Cc1ccc(Cl)cc1NC(=O)c1cc(-c2ccc3c(c2)OCCO3)on1	inconclusive: 1.26 µM [cytotoxic, partial curve]	
COC(=O)c1c(-c2ccc(Cl)cc2)noc1N1CCN(c2cccc(OC)c2)CC1		inactive: 11.2%
COc1ccccc1CNC(=O)c1cccc(NC(=O)N2CCSc3ncccc32)c1		inactive: 1.77%
COc1cc(-c2nc3cccc(C)n3c2Nc2ccc3c(c2)OCCO3)ccc1O		inactive: -8.15%
CCN1CCN(CCCNC(=O)c2cnn(-c3ccc(C)cc3)c2C2CCN(C(=O)OC(C)(C)C)CC2)CC1		inactive: 8.44%
Cc1ccc(NC(=O)c2cc(-c3cccs3)on2)cc1C		inactive: -18%
Cc1oc(-c2ccccc2)nc1CNS(=O)(=O)c1ccc(Cl)cc1		inactive: -6.37%
O=C(Nc1nnc(S(=O)(=O)N2CCCC2)s1)c1ccc(F)cc1		inactive: -27.4%
Cc1cccc(NS(=O)(=O)c2ccc(Cl)c(C(=O)Nc3ccccc3C)c2)c1		inactive: 0.509%
CCOc1ccc(NC(=O)Cn2nnc(C(=O)NCc3cccs3)c2N)cc1	inconclusive: 3.16 µM [cytotoxic, full curve, poor fit]	
COc1ccc2c(c1)CCc1c(C(=O)Nc3c(C)nn(Cc4ccc(Cl)cc4)c3C)noc1-2		inactive: 31.4%
O=C(CSCc1ccccc1Cl)NCc1ccc(Cl)c(Cl)c1	inconclusive: 20 µM [cytotoxic, single point]	
Cc1ccc(C)c(Cn2c3ccccc3c3cnn(CC(=O)NCC(C)c4ccccc4)c(=O)c32)c1 (stereo unspecified)	inconclusive: 1.58 µM [cytotoxic, full curve]	
CC(=O)N1CCN(c2nc3c(C)ccc(Cl)c3s2)CC1	inconclusive: 0.316 µM [cytotoxic, full curve, poor fit]	
Cc1ccc(-c2nnc(Nc3ccc(Cl)c(Cl)c3)c3ccccc23)cc1S(=O)(=O)N(C)C		inactive: 8.55%
Cc1cccc(CNC(=O)CN2C(=O)C3CCCCN3c3ccc(C(=O)N4CCCC4)cc32)c1 (stereo unspecified)	inconclusive: 0.224 µM [cytotoxic, full curve, poor fit]	
Cc1ccc(OCC(=O)N(Cc2ccco2)c2ccccn2)cc1	inconclusive: 0.0316 µM [cytotoxic, full curve]	
O=C(Nc1cccc(-c2nc3ccccc3[nH]2)c1)c1ccccc1F	inconclusive: 25.1 µM [cytotoxic, single point]	
CCOC(=O)c1c(C)[nH]c(C)c1S(=O)(=O)N(C)CC(=O)Nc1ccc(C)c(F)c1	inconclusive: 0.0398 µM [cytotoxic, full curve, poor fit]	
